Source: PubChem BioAssay AID686970 (National Center for Advancing Translational Sciences (NCATS), 2013)
Among all 360,000 compounds or so, about 6,000 (1.7%) were called active. This list was built around the results that the source calls inconclusive (neither active nor inactive); the mix of calls is not that of the screen. The call rests on the fitted dose curve; in most records, active means well fitted cell-killing curve with a large enough effect; inconclusive means small, poorly fitted or top-dose-only effect, or effect the other way; inactive means flat fitted curve, though single readings scatter. No potency is given beside an inconclusive call; the fits are too rough.

Assay: qHTS for induction of synthetic lethality in tumor cells producing 2HG: qHTS for the HT-1080-NT fibrosarcoma cell line; further: nearly all actives have a fitted effect of over 55% in size
Settings: HT-1080-NT fibrosarcoma viability, CellTiter-Glo ATP luminescence, 48 h; activity, negative = less viability: at 46.1 µM (top of the series)
Description: Unbiased genomic sequencing for 22 glioma genomes found recurrent mutation of IDH1 on chromosome 2q33, a gene encoding the cytosolic isoform of IDH1 associated with the tricarboxylic acid cycle (TCA) that catalyzes the oxidative decarboxylation of isocitrate, yielding alpha-ketoglutarate and CO2 via NADP+ to NADPH conversion. Subsequent studies confirmed the recurrent IDH mutations in up to 70% of secondary gliomas and in 10% of AML cases. In addition, the somatic mutation of cancer-associated IDH1 is a point mutation resulting in various amino-acid substituents at Arginine132 (IDH1 R132), a key residue found in the enzyme's active site that when mutated, results in the loss-of-function in metabolizing isocitrate but confers a gain-of-function to produce the oncometabolite 2-hydroxyglutarate (2HG). This in effect defines IDH1 as an oncogene and provides an extraordinary opportunity to discover chemical probes against mutant IDH1 that may translate into much needed new therapies for glioma and AML patients.
This assay aims to perform a synthetic lethal screen for chemical probes specific for 2HG-producing tumor cells using matched paired cell lines (1) HT-1080-NT fibrosarcoma cell line that overproduces 2HG and (2) HT-1080-IDH1KD cell line which has IDH1 expression knocked-down. Desirable compounds are toxic to the NT fibrosarcoma cells but not to the IDH1KD cell line. The data in this AID corresponds to the results of the qHTS against the HT-1080-NT fibrosarcoma cell line.
[1] Dang L, Jin S, Su SM. IDH mutations in glioma and acute myeloid leukemia. Trends of Mol Med. 2010; 16(9): 387-97.
[2] Dang L et al. Cancer-associated IDH1 mutations produce 2-hydroxyglutarate. Nature. 2010; 465(7300):966.
NIH Molecular Libraries Probe Production Centers Network [MLPCN]
NIH Chemical Genomics Center [NCGC]
Assay Submitter (PI): Lenny Dang Ph.D., Agios Pharmaceuticals
Suspensions of trypsinized HT-1080-NT cells were dispensed into white, tissue culture-treated, solid 1536-well plates at 5uL/well (750 cells/well final concentration) in RPMI medium supplemented with 5% FBS. Plates were incubated at 37 degrees C for 2 hours, after which 23 nL of compounds or DMSO were delivered to each well using a pin tool. Plates were then incubated at 37 degrees C for an additional 48 hours. CellTiter-Glo viability reagent (Promega) was dispensed into wells (2.5uL/well) and incubated at room temperature for 10 minutes. The plates were measured on a PerkinElmer ViewLux plate reader for luminescent signal (clear filter, 1 sec exp). DMSO-treated control wells and media-only (no cells) control wells were used to normalize %Activity of identified toxic compounds; DMSO-treated wells corresponded to 0%Activity (100% viability), while media-only controls were used to normalize 100%Activity (0% viability).
Concentration-response curves were fitted to the signals arising from the resulting luminescence. The concentration-effect curves were then classified based on curve quality (r2), response magnitude and degree of measured activity, and compounds were subsequently categorized based on their curve class.
Potency means the concentration at half of the fitted maximal effect; tags describe the fitted curve by direction and shape.

SMILES	activity, negative = less viability	Potency
CNC(C(=O)c1ccccc1)C(OC)c1cccc([N+](=O)[O-])c1 (centres undefined)	inactive: -0.13%	
Cc1ccc2cc(C=C(C#N)C#N)c(Cl)nc2c1	inactive: -1.04%	
CCCCCCCCCCCCCCCC[N+](C)(C)C		active: 11.6 µM
Cn1cccc1/C=C1/C(=O)NC(=O)N(Cc2ccc(F)cc2)C1=O		inconclusive [cytotoxic, single point]
Cn1c(O)c(/C=N/c2ncccn2)c(=O)n(C)c1=O		inconclusive [rising, single point]
CCCCn1c(N)c(C(=O)NCCN2CCOCC2)c2nc3ccccc3nc21		inconclusive [cytotoxic, partial curve]
C[C@@H]1CN([C@H](C)CO)C(=O)c2c(c3ccccc3n2C)-c2ccccc2CO[C@H]1CN(C)Cc1ccc(-c2ccccc2)cc1		active: 20.6 µM
CN1C[C@H](CNC(=O)OCc2ccccc2)C[C@@H]2c3cccc4c3c(cn4C)C[C@H]21		inconclusive [cytotoxic, single point]
Cn1c(O)c(C(=Nc2ccccc2)SCc2ccc(Cl)cc2)c(=O)n(C)c1=O		inconclusive [cytotoxic, single point]
CCc1nc2ccccc2c(=O)n1-c1ccc2ccccc2c1	inactive: -5.89%	
O=c1[nH]c2ccccc2n1C1CCN(C(c2cc3ccccc3o2)c2nnnn2Cc2ccccc2)CC1 (centres undefined)		active: 10.3 µM
COC1CCC(OC2CC(C3(C)CCC4(CC(O)C(C)C(C(C)/C=C(\C)C(=O)C(C)CC(C)C(=O)O)O4)O3)OC3(OC(C4OC(O)(CO)C(C)CC4C)CC3C)C2C)OC1C (centres undefined)		active: 13 µM
O=C(c1ccc(CNS(=O)(=O)c2ccc(Br)cc2)cc1)N1CCC2(CC1)OCCO2	inactive: 0.393%	
Cc1ccc(/C=C2/C(=O)NC(=O)N(CCc3ccc(F)cc3)C2=O)o1		inconclusive [cytotoxic, single point]
CCCCCn1c(NC(=O)c2ccco2)c(C(=O)OCC)c2nc3ccccc3nc21		active: 9.2 µM
CC(=O)O[C@H]1CC[C@@]2(C)C(=CC[C@@H]3[C@@H]2CC[C@]2(C)C(=O)CC[C@@H]32)C1		inconclusive [rising, full curve]
CCOC(=O)[C@]12Cc3cc(OC)ccc3[C@H]1N(C(C)C)C(=O)c1cc(OC)ccc12		active: 20.6 µM
COc1cc(OC)c(OC)cc1/C=C(\C#N)C(=O)NCc1cccs1		inconclusive [rising, single point]
COc1ccc(-c2cc(-c3ccccc3)[n+](C)c(-c3ccccc3)c2)cc1		inconclusive [cytotoxic, single point]
